Data: the RNAGym collection of RNA variant scans (doi:10.1093/nar/gkz1192)
The source gives no read counts; variants with many changes may rest on few reads.

B1: CPEB3 Ribozyme (parent)
chain: UAACAGGGGGCCACAGCAGAAGCGUUCACGUCGCAGCCCCUGUCAGAUUCUGGUGAAUCUGCGAAUUCUGCUGUAUAUCUC

Variants of: B1
Test: self-cleavage, relative activity (ratio to wild type); higher = more cleavage; in vitro, sequencing
In short: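 For each CPEB3 ribozyme variant, relative activity is its cleaved/total read fraction divided by the unmutated ribozyme's. Barcoded error-prone PCR libraries were transcribed by T7 RNA polymerase (5 hours, 37°C) and held in DNase I for 15 min before an EDTA stop, with cleavage occurring throughout. Template-switching reverse transcription and Illumina sequencing were used to read the RNAs. A 5-read minimum applied, and results are the mean of three batches.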
Variant UGACAGGGGGCCACAGCAGAAGCGUUCACGUCGCGGCCCCUGCCAGAUUCUGGUGAAUCUGCGAAUUCUGCUGUAUAUCUC [A2G A35G U43C] has a self-cleavage of 0.96.
For UGACAGGGGGCCACAGCAGAAGCGUUCACGUCGCGGCCCCUGUCAGAUCCUGGUGAAUCUGCGAAUUCUGCCGUAUAUCUC [A2G A35G U49C U72C], the self-cleavage was 0.27.
In the case of UGACAGGGGGCCACAGCAGAAGCGUUCACGUCGCUGCCCCUGUCAGGUUCUGGUGAAUCUGCGUAUUCUGCUGAGUAUCUC [A2G A35U A47G A64U U74A A75G], the self-cleavage is reported as 0.08.
UGACAGGGGGCCACAGCAGAAGCGUUCACGUCGCUGCCCCUGUCAGAUUCUGGUGGAUCUGCGAAUUCUGCUGUAUAUCUC [A2G A35U A56G] gave a self-cleavage of 0.6.
Work on UGACAGGGGGCCACAGCAGAAGCGUUCACGUCGCUGCCCCUGUCAGAUUCUAGUGAAUCUGCGAAUUCCGCUGUAUAUCUC [A2G A35U G52A U69C] yielded a self-cleavage of 0.13.
For UGACAGGGGGCCACAGCAGAAGCGUUCACGUCGCUGCCCCUGUCAGAUUCUGGUGAACCUGCGAAUUCAGCUGUACAUCUC [A2G A35U U58C U69A U76C], the self-cleavage was 0.09.
UGACAGGGGGCCACAGCAGAAGCGUUCACGUCGCUGCCCCUGUCAGAUUCUGGUGAAUCUGCGAACUCUGCUGUAUAUCUC [A2G A35U U66C] gave a self-cleavage of 0.12.
For UGACAGGGGGCCACAGCAGAAGCGUUCACGUCGCUGCCCCUGUCAGAUUCUGGUGAAUCUGCGAAUUCUGCAGUAUAUCUC [A2G A35U U72A], the self-cleavage was 0.21.
UGACAGGGGGCCACAGCAGAAGCGUUCACGUCGCUGCCCCUGUCAGAUUCUGGUGAAUCUGCGAAUUCUGCUGCAUAUCUC [A2G A35U U74C] showed a self-cleavage of 0.43.
With UGACAGGGGGCCACAGCAGAAGCGUUCACGUCGCAGCCCCUGUCGGAUUCUGGUGGAUCUGCGAAUUCAGCUGUAUAUCUC [A2G A45G A56G U69A] the self-cleavage was 0.31.
Variant UGACAGGGGGCCACAGCAGAAGCGUUCACGUCGCAGCCCCUGUCGGAUUCUGGUGUAUCUGCGAAUUCUGCUGUAUAUCUC [A2G A45G A56U] has a self-cleavage of 0.53.
Work on UGACAGGGGGCCACAGCAGAAGCGUUCACGUCGCAGCCCCUGUCGGAUACUGGUGAAUCUGCGAAUUCUGCUGUAUAUCUC [A2G A45G U49A] yielded a self-cleavage of 0.42.
Work on UGACAGGGGGCCACAGCAGAAGCGUUCACGUCGCAGCCCCUGUCGGAUACUGGUGAAUCUGCGAACUCUGCUGUAUAUCUC [A2G A45G U49A U66C] yielded a self-cleavage of 0.21.
UGACAGGGGGCCACAGCAGAAGCGUUCACGUCGCAGCCCCUGUCGGAUUCUGGUGAAUCUGCGAAUUCUGCUGUACGUCUC [A2G A45G U76C A77G] gave a self-cleavage of 0.53.
UGACAGGGGGCCACAGCAGAAGCGUUCACGUCGCAGCCCCUGUCUGAUUCUGGUGAAUCUGCGACUUCUGCUGUAUAUCUC [A2G A45U A65C] showed a self-cleavage of 0.28.
UGACAGGGGGCCACAGCAGAAGCGUUCACGUCGCAGCCCCUGUCUGAUUCUGGUGAAUCUGCGAAUUCUACUGUACAUCUC [A2G A45U G70A U76C] showed a self-cleavage of 0.17.
UGACAGGGGGCCACAGCAGAAGCGUUCACGUCGCAGCCCCUGUCAGGCUCUGGUGAAUCAGCGAAUUCUGCUGUAUAUCCC [A2G A47G U48C U60A U80C] showed a self-cleavage of 0.06.
Work on UGACAGGGGGCCACAGCAGAAGCGUUCACGUCGCAGCCCCUGUCAGGUUCUGGGGAAUCUGCGAAUUCUGCUGUACAUCUC [A2G A47G U54G U76C] yielded a self-cleavage of 0.39.
UGACAGGGGGCCACAGCAGAAGCGUUCACGUCGCAGCCCCUGUCAGGUUCUGGUGAAUCCGCGUAUUCUGCUGUAUAUCUC [A2G A47G U60C A64U] gave a self-cleavage of 0.1.
In the case of UGACAGGGGGCCACAGCAGAAGCGUUCACGUCGCAGCCCCUGUCAGUUUCUGGUGGAUCUGCGAAUUCAGCUGUAUAUCUC [A2G A47U A56G U69A], the self-cleavage is reported as 0.08.
With UGACAGGGGGCCACAGCAGAAGCGUUCACGUCGCAGCCCCUGUCAGUUUCUGGUGAAUCUGCGAAUUCUGCGGUAACUCUC [A2G A47U U72G U76A A77C] the self-cleavage was 0.1.
In the case of UGACAGGGGGCCACAGCAGAAGCGUUCACGUCGCAGCCCCUGUCAGAUUCUGGUGGGUCUGCGAAUUCUGCUGUAUAUCUC [A2G A56G A57G], the self-cleavage is reported as 0.24.
In the case of UGACAGGGGGCCACAGCAGAAGCGUUCACGUCGCAGCCCCUGUCAGAUUCUGGUGGAUCCGCGAAUUCUGCUGUAUAUCUC [A2G A56G U60C], the self-cleavage is reported as 0.14.
UGACAGGGGGCCACAGCAGAAGCGUUCACGUCGCAGCCCCUGUCAGAUUCUGGUGGAUCUGCGAAUUCUGCUGUAAAUCUC [A2G A56G U76A] showed a self-cleavage of 0.65.
In the case of UGACAGGGGGCCACAGCAGAAGCGUUCACGUCGCAGCCCCUGUCAGAUUCUGGUGUAUCUGCGAAUUCUGCCGUAUAUCUC [A2G A56U U72C], the self-cleavage is reported as 0.37.
Variant UGACAGGGGGCCACAGCAGAAGCGUUCACGUCGCAGCCCCUGUCAGAUUCUGGUGACUCUGCGAUUUCUGCUGUAUAUCCC [A2G A57C A65U U80C] has a self-cleavage of 0.26.
For UGACAGGGGGCCACAGCAGAAGCGUUCACGUCGCAGCCCCUGUCAGAUUCUGGUGAGUCUGCGAACUCUGCUGUAUAUCUC [A2G A57G U66C], the self-cleavage was 0.25.
Variant UGACAGGGGGCCACAGCAGAAGCGUUCACGUCGCAGCCCCUGUCAGAUUCUGGUGAGUCUGCGAACUCUGCCGUAUGUCUC [A2G A57G U66C U72C A77G] has a self-cleavage of 0.27.
Work on UGACAGGGGGCCACAGCAGAAGCGUUCACGUCGCAGCCCCUGUCAGAUUCUGGUGAAUCUGCGGAUACAGCUGUAUAUCUC [A2G A64G U67A U69A] yielded a self-cleavage of 0.24.
UGACAGGGGGCCACAGCAGAAGCGUUCACGUCGCAGCCCCUGUCAGAUUCUGGUGAAUCUGCGGAUUCCGCUGUAUAUCUC [A2G A64G U69C] showed a self-cleavage of 0.25.
Variant UGACAGGGGGCCACAGCAGAAGCGUUCACGUCGCAGCCCCUGUCAGAUUCUGGUGAAUCUGCGUAUACUGCUGUAUAUCUC [A2G A64U U67A] has a self-cleavage of 0.18.
For UGACAGGGGGCCACAGCAGAAGCGUUCACGUCGCAGCCCCUGUCAGAUUCUGGUGAAUCUGCGACCUCUGCUGUAUAUCUC [A2G A65C U66C], the self-cleavage was 0.32.
UGACAGGGGGCCACAGCAGAAGCGUUCACGUCGCAGCCCCUGUCAGAUUCUGGUGAAUCUGCGAGCUCUGCUGUGUAUCUC [A2G A65G U66C A75G] showed a self-cleavage of 0.17.
Work on UGACAGGGGGCCACAGCAGAAGCGUUCACGUCGCAGCCCCUGUCAGAUUCUGGUGAAUCUGCGAGUUCUGCAGUAUAUCAC [A2G A65G U72A U80A] yielded a self-cleavage of 0.11.
